Measurements: the RNAGym collection of RNA variant scans (doi:10.7554/elife.90254)
Read counts are not given, so values of variants with three or more changes are uncertain.

B1: LINE1-mini (parent)
chain: GGCAGAGCUCAACACAGCGUGGCAAAGUGGCUGUGGCUAGACUGCC

Variants of: B1
Assay: self-cleavage, relative activity (ratio to wild type); higher = more cleavage; in vitro, sequencing; the parent is a self-cleaving ribozyme

| Variant | self-cleavage |
| --- | --- |
| GGCGGAUCUAAACACAGCGUGGCAAAGUGGAUGUGGCUAGACUGCC | 0.15 |
| GGCGGAGCUCAACACAGCCUGGCAAAGUGGCUGAGGCUAGACUGUC | 0.04 |
| GGCGGAUCUCAACACAGCGUGGCAAAGUGGCUGUGGAUAGACAGCC | 0.35 |
| GGCGUAGCUCAACACAGAGUGGCAAAGUGGCAGUGUCUAGACUGCC | 0.01 |
| GGCGGAACUCAACACAGCGUGGCAAAGUGGCUGUGGCCAGACUCCC | 0.21 |
| GGCGGAGCUCAACACAGCAUGGCACAGUGGCUGUGGCUAGACUGCC | 0.43 |
| GGCGGAGCUCAACACAGCCUGGCAAAGUGGCUCUGGAUAGACUGCC | 0.02 |
| GGCGGAGCUCAACACAGCGUAGCAAAGUGGCUGUAGCUAGACUGCC | 0.08 |
| GGCGGAGCUCAACACAGCGUGUGAAAGUGGCUGUGGCUAGACUGCC | 1.36 |
| GGCGGAGCUCAACACAGCUCGGCAAAGUGUCUGUGGCUAGACUGCC | 0.28 |
| GGCGGAGCUCAACACAGCGUGGCAAAUUGGCUGUGGCUAUACUGCC | 0.07 |
| GGCGGAGCUCAACACAGCGUGGCAAACUGGCUGUGCCUAGACUGCC | 0.08 |
| GGCGGAGCUCAACACAGCUUGGCAAAGUGGUUGUGGCUAGAGUGCC | 0.04 |
| GGCGGAUCUCAACAGAGCGUGGCAGAGUGGCUGUGGCUAGACUGCU | 0.04 |
| GGCGGAGCUCAACACAGCGUUGCAAAGUGGCUGUGGCUAGACUGCU | 0.62 |
| GGCGGAGCUCAACACAGCGUGACAAAAUUGCUGUGGCUUGACUGCC | 0.11 |
| GGCGGACCUCAACACAGCGUGGCAAAGUGGCUGUGGCUAGACAGCC | 0.03 |
| GGCGUAGCUCAAUACAGCGUGGCAAAGUGGCUGUGGCUAGACUGCC | 0.06 |
| GGCGGAGCUCAACACAGCGUGACAAAGUGUCUGUGGCUAGACUGCC | 0.15 |

| Variant | self-cleavage |
| --- | --- |
| GGCGGAGCUCAACACAUCGUGGCAAAGUGGCUGUGGCUAGACUUCC | 0.03 |
| GGCGUAGCUCCACACAGCGUGUCAAAGUGGCUGUGGCUAGACUACC | 0.05 |
| GGCGGACCUCACCCCAGCGUGGCAAAGUGGCUGUGGCUAGACUGCC | 0.02 |
| GGCGGAGCUCAACACAACGUGGCUAAGUGGCUGUGGCUAGACUGCC | 0.03 |
| GGCGGAACUCAACAUAGCGUGGCAAAGUGUCUGUGGCUAGAUUGCC | 0.58 |
| GGCGGAGCUCAACACAUCGUGGCAAAUUGGCUGUGGCUAGACUGCC | 0.44 |
| GGCGGAGCUCAACACAGCGUGGCAAAGUUGCUGCGACUAGACUGCC | 0.21 |
| GGCGGAGCUCAACACAGCGUGCCAAAGUGGCUGUGGCUAGACUGGC | 0.05 |
| GGCGGAGCUCAACACAGCGUUGCAAAGUGGCUGCGGCUAGACUGCC | 0.35 |
| GGCGGAGCUCAACACAGCGUGGCAAAAUGGCUGUGGCUAGACUGUU | 0.31 |
| GGCGGAGCUCAACACAUCGUGGCAAAGCACCUGUGGCUAGACUGCC | 0.07 |
| GGCGUAGCUCAACACAGCGUGUCAAAGUGGCUGUGGCUAGACUGAC | 0 |
| GGCGGAGCUCAACACAGCGUGCCAAAGUGGCGGUGCCUAGAAUGCC | 0.04 |
| GGCGGACCUCAACACAGCGUGGCAAAGUUGCUGUGGCUAGACUGCC | 0.16 |
| GGCGGAGCUCAACACAGCGUGUCAAAGUGGUUGUGGCUAGACGGCC | 0 |
| GGCGGAGCUCAACACAGCGUGGCAAAUUGGCUGUGUCUAGACUGCC | 0.1 |
| GGCGGAGCUCAACACAGCGUGACAUAGUGGCUGUGGCUAGACUGCC | 2.2 |
| GGCGUAGCUCAACACAGGGUGCCACGGUGGCUGUGGCAAGACUGCC | 0.01 |
| GGCGGAGCUCAACACAGCGUGGCAAAAUGGCUGUGCUUAGACUGCC | 0.02 |

| Variant | self-cleavage |
| --- | --- |
| GGCGGAGCUCAACACACCGUGUCAAAGUGGCUGUGGUUAGACUGCC | 0.05 |
| GGCGGAACUCAACACAGCGUGGCAAAGUGGGUGUGGCUAGACUGCC | 0.07 |
| GGCGGAGCUCAACACAGCGUGGCAAAUCUGUUGUAGCUAGACUACC | 0.01 |
| GGCGGAACUCAACACAGCGUGGCAAAGUGGCUGUGCCUAGACUGCC | 0.12 |
| GGCGGAACUUAACAAAGCAGGGCAAAGUGGGUGUGGCUAGACUGCC | 0.06 |
| GGCGGAACUCAAUACUGCGUGUCAAAGUGUGUGUGGCUAGACUGCC | 0.09 |
| GGCGGAGCUCAACACAGCGUGGCAAAGUGCCUGUGGCUAGGCUGCC | 0.61 |
| GGCGGAGCUCAACACAGCGUGACAAAGUGGUUGUGGCUAGACUGCC | 0.06 |
| GGCGGAGCUCAACACAGCGUGUCAAAGUGGCUGUGGCUUCACUGCC | 0.07 |
| GGCGGAGCUCAACACAGCGUGGCAAAACGGCUGUGGCUAGACAGCC | 0.06 |
| GGCGGAGCUCAACACAGCGUGGCAAAGUUGCUGUGGCUAAACUGCC | 0.07 |
| GGCGGAGCUCAACACAGCGUGGCAAAGUUGCAGUGGCUAAACUGCC | 0.03 |
| GGCGGAACUCAACACAGCGUGGCAAAAUGGCUGUGGCUAGACUGCC | 0.35 |
| GGCGGAGCUCAACACAGCGUGUCAAAGUGGCUGCGGAUAGACCGCC | 0.08 |
| GGCGGAUCUAAACACACCGUGGCAAAGUGGCUGUGGCUAGACUUCC | 0.03 |
| GGCGGAUCUCAACCCAGCGUGGCAAAGUGGAUGUGGCAGGAAUGCC | 0.03 |
| GGCGGAACUCAACACAGCGUGGGAAAGUGGGUGUGGCUAGACUCCC | 0.02 |
| GGCGUAGCUCAACACAGGGUGGCAAAGUAGCUGUGGCUAGACUGGC | 0.04 |
